In article PMC9640623, “SAMHD1 deacetylation by SIRT1 promotes DNA end resection by facilitating DNA binding at double-strand breaks” (Nature Communications, 2021):
Like-named read-outs stand apart in the source and are kept apart here. Results are given in words; binding and its absence hold for the method and conditions named. In cells and extracts the contact can be indirect. Some binding calls cover weakened binding; strength is not graded here.

Protein sequences, listed by entry. Tags and fused reporters are not part of them. Lines headed by an entry give the natural chain unless they say otherwise; changes in a name come on top.
UniProt Q96EB6: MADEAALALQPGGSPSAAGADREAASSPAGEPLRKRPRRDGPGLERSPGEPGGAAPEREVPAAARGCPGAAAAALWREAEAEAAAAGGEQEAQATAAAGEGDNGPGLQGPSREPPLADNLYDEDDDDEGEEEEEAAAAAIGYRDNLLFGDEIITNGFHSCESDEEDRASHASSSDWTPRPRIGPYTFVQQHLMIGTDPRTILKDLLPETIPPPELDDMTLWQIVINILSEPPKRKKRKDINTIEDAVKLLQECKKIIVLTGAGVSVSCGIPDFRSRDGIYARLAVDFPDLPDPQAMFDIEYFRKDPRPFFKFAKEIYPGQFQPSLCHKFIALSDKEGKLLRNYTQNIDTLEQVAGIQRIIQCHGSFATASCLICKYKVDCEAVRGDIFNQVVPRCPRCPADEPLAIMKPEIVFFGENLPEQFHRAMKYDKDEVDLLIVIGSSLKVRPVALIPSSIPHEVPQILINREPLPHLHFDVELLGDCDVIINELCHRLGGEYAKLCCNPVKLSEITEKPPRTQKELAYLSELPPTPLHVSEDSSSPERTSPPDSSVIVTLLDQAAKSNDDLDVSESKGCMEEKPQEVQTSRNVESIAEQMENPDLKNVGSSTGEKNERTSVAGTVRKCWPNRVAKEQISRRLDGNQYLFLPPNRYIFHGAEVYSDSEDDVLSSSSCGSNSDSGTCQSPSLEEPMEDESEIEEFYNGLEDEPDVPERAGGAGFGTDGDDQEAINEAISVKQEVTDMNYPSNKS
UniProt Q9Y3Z3: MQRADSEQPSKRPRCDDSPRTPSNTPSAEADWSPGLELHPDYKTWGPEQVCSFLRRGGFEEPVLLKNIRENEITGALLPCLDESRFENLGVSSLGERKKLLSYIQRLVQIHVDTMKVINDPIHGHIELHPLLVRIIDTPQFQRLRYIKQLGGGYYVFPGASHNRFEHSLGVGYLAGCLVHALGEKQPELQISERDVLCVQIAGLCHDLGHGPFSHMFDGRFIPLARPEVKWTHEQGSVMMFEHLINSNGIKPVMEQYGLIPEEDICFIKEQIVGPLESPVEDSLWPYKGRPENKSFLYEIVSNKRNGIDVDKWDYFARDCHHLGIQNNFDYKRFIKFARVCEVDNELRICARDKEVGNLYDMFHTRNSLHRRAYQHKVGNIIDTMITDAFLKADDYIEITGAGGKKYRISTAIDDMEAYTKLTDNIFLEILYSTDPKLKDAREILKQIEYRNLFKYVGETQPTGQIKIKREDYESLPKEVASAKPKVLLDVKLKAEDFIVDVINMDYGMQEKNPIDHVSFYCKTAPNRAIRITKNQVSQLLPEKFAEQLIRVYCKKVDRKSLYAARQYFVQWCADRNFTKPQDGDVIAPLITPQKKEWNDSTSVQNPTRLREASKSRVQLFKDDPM
UniProt O60934: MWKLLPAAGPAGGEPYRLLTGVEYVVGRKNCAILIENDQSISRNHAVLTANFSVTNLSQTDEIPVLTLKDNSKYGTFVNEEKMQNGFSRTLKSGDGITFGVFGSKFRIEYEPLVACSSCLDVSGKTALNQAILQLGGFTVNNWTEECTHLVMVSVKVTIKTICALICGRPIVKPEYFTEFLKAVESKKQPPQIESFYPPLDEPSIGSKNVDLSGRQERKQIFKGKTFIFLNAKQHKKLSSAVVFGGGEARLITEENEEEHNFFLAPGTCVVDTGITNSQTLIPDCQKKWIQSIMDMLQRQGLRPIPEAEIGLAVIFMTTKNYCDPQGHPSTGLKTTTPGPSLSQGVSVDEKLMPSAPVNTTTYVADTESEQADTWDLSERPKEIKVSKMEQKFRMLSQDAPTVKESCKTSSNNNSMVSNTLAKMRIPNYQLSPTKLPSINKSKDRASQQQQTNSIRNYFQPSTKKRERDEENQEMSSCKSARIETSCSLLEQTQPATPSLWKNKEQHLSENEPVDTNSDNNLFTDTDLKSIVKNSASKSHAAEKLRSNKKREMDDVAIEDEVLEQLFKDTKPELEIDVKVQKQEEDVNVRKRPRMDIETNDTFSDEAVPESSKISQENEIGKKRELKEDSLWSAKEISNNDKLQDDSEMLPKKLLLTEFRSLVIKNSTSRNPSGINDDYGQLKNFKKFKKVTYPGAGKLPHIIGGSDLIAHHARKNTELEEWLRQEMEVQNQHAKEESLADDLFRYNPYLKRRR
UniProt Q92878: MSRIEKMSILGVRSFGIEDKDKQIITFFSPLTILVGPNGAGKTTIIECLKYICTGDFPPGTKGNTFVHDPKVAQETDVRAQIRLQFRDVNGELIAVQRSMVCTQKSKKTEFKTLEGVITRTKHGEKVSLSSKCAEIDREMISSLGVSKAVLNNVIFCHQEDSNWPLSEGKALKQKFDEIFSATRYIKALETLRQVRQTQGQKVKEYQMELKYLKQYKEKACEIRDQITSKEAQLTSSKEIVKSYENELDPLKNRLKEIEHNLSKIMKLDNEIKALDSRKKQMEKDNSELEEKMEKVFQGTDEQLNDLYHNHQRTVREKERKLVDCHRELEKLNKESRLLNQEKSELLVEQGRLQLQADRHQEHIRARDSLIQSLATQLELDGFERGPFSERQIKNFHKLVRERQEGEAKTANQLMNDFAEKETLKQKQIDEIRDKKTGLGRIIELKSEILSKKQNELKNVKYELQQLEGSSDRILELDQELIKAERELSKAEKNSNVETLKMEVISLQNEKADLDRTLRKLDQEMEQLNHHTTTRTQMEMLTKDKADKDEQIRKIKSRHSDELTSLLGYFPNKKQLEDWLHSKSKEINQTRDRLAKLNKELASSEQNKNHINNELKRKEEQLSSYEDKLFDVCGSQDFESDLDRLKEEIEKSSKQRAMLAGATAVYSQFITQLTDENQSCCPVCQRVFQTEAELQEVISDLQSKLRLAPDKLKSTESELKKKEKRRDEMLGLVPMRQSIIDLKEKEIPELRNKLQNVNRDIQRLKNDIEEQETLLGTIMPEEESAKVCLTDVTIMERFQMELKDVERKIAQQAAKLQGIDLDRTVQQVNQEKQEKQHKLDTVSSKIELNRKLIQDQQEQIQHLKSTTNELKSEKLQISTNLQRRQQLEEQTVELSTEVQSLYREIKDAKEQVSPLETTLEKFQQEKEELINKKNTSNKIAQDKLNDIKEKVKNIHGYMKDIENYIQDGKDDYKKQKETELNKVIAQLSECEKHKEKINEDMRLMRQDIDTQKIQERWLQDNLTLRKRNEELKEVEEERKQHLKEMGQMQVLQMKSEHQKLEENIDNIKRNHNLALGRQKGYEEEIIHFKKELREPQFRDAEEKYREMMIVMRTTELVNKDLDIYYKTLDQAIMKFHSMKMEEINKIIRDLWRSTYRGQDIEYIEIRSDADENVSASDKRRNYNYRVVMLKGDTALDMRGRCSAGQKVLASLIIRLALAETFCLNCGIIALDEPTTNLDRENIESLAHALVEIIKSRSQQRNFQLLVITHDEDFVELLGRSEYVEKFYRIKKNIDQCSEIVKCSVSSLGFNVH
UniProt Q8N6T7: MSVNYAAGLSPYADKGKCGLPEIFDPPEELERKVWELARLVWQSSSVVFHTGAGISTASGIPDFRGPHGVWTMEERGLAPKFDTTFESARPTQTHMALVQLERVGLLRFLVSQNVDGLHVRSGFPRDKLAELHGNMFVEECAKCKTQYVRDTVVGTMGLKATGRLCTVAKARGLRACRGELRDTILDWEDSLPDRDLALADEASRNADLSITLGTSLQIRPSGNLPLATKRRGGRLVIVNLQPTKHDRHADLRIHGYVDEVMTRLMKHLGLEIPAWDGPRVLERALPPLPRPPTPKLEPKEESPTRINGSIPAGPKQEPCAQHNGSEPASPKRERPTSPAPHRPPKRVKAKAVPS
UniProt Q9NRC8: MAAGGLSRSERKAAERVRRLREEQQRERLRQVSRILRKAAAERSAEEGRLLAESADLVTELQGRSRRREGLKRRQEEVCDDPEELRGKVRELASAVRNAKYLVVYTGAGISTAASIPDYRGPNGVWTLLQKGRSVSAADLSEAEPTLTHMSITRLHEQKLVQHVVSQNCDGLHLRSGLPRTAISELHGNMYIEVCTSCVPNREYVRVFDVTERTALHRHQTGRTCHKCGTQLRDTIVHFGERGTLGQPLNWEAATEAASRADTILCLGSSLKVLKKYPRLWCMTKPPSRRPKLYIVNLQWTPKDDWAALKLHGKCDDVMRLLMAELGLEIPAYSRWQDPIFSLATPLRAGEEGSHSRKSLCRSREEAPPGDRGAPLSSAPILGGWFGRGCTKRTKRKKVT

Assays:
[1] = target: SIRT1-FLAG wild-type (human) (UniProt Q96EB6); test: co-IP; SAMHD1-GFP fragments and SIRT1-FLAG co-expressed, irradiated cells (Supplementary Fig. 5c); which protein was precipitated is not given
SAMHD1-GFP K354Q (human) = SAMHD1-GFP K354Q (human) (UniProt Q9Y3Z3); test: co-IP; 293T cells overexpressing SAMHD1-GFP, with or without 10 Gy IR (harvested after 4 h); lysate in CHAPS buffer IP'ed with anti-GFP antibody on protein A/G agarose overnight at 4 °C; blots for co-precipitated proteins of the lysate
SAMHD1-GFP K354R (human) = SAMHD1-GFP K354R (human) (UniProt Q9Y3Z3); test: as above
[2] = target: SAMHD1-GFP wild-type (full-length) (human) (UniProt Q9Y3Z3); test: as above
[3] = target: SIRT1-FLAG wild-type (human) (UniProt Q96EB6); test: co-IP; 293T cells overexpressing SIRT1-FLAG, with or without 10 Gy IR (harvested after 4 h); lysate IP'ed (Anti-Flag M2 affinity beads named in the methods); blot for endogenous SAMHD1
[4] = target: endogenous SIRT1 (human (endogenous in 293T)) (UniProt Q96EB6); test: co-IP; 293T lysates, with or without IR, IP'ed with anti-SAMHD1 or anti-SIRT1 antibodies; blots with anti-SIRT1 and anti-SAMHD1; both proteins endogenous
[5] = target: SAMHD1-GFP wild-type (full-length) (human) (UniProt Q9Y3Z3); test: co-IP; 293T cells overexpressing SAMHD1-GFP, with or without 10 Gy IR (harvested after 4 h); lysate in CHAPS buffer IP'ed with anti-GFP antibody on protein A/G agarose overnight at 4 °C; blots for co-precipitated proteins of the lysate; remark: listed apart in the source

| binding [1] | binding [2] | Molecule | other results |
| --- | --- | --- | --- |
| no binding | – | SAMHD1-GFP (1–115) (from UniProt Q9Y3Z3 1-115) (domain or fragment) | – |
| no binding | – | SAMHD1-GFP (115–300) (from UniProt Q9Y3Z3 115-300) (domain or fragment) | – |
| binds | – | SAMHD1-GFP (300–465) (from UniProt Q9Y3Z3 300-465) (domain or fragment) | – |
| – | binds | endogenous NBS1 (from UniProt O60934 1-754) | binding (SAMHD1-GFP K354Q (human)): binds; binding (SAMHD1-GFP K354R (human)): binds |
| – | binds | endogenous RAD50 (from UniProt Q92878 1-1312) | binding (SAMHD1-GFP K354Q (human)): binds; binding (SAMHD1-GFP K354R (human)): binds |
| – | – | endogenous SAMHD1 (from UniProt Q9Y3Z3 1-626) | binding [3]: binds; binding [4]: binds |
| – | no binding | endogenous SIRT6 (from UniProt Q8N6T7 1-355) (enzyme) | – |
| – | no binding | endogenous SIRT7 (from UniProt Q9NRC8 1-400) (enzyme) | – |
| – | – | endogenous SIRT2 (enzyme, UniProt Q8IXJ6 1-389) MAEPDPSHPLETQAGKVQEAQDSDSDSEGGAAGGEADMDFLRNLFSQTLSLGSQKERLLDELTLEGVARYMQSERCRRVICLVGAGISTSAGIPDFRSPSTGLYDNLEKYHLPYPEAIFEISYFKKHPEPFFALAKELYPGQFKPTICHYFMRLLKDKGLLLRCYTQNIDTLERIAGLEQEDLVEAHGTFYTSHCVSASCRHEYPLSWMKEKIFSEVTPKCEDCQSLVKPDIVFFGESLPARFFSCMQSDFLKVDLLLVMGTSLQVQPFASLISKAPLSTPRLLINKEKAGQSDPFLGMIMGLGGGMDFDSKKAYRDVAWLGECDQGCLALAELLGWKKELEDLVRREHASIDAQSGAGVPNPSTSASPKKSPPPAKDEARTTEREKPQ | binding [5]: no binding |
